Experimental data as given in PMC6919601, “Identification of Plasmodium dipeptidyl aminopeptidase allosteric inhibitors by high throughput screening” (PLoS ONE, 2019).
The campaign covered roughly 110,000 compounds. About 230 (0.21%) showed an effect of 50% or more. The list shows a part of the results.

target: DPAP1 (Plasmodium falciparum, UniProt Q8IIJ9); experiment: primary screen, percent inhibition; read by cleavage of a fluorogenic dipeptide substrate; higher = more effect of the substance; design: species or system P. falciparum D10 trophozoite lysates; single well
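Further: 30 min substrate incubation versus DMSO and 10 µM JCP410 controls.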

DPAP1, sequence (Q8IIJ9 whole entry, looked up): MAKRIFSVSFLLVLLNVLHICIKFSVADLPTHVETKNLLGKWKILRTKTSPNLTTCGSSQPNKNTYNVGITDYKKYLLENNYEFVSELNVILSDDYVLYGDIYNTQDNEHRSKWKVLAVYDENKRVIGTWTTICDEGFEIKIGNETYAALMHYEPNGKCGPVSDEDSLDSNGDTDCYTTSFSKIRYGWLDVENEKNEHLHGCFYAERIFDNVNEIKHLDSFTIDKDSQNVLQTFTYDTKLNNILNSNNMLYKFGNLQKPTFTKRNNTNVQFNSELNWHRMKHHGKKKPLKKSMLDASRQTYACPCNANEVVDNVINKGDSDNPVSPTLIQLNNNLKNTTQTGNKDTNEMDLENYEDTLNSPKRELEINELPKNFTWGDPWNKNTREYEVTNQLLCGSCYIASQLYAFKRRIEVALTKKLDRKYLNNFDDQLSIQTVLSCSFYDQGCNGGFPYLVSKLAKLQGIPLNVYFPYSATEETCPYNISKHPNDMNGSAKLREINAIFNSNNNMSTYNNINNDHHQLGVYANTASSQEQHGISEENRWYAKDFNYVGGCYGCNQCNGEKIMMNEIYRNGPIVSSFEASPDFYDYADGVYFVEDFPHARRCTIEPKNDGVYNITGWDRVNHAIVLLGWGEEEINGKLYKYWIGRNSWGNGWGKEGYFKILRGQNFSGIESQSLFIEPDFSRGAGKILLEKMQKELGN

Row | Structure (SMILES) | % Inhibition @ 10 uM [%]
1 | Cc1cc(C)nc(SCC(=O)Nc2nc(-c3ccccc3)cs2)n1 | 2.03
2 | CCOc1ccc(C2C(C(=O)OC)=CN(C(C)C)C=C2C(=O)OC)cc1OC | -5.05
3 | CCOC(=O)N1CCc2c(sc3c2C(=O)NC(/C=C\c2ccccc2)N3)C1 (stereo not shown) | 5.65
4 | CN(C)c1ccc(C(=O)Nc2ccc(C#N)cc2)cc1 | -5.11
5 | Cc1cc(N2CCOCC2)nc2ccc(O)cc12 | -0.13
6 | Cc1ccc(CCNC(=O)C2CCN(S(=O)(=O)N(CC(C)C)CC(C)C)CC2)cc1 | -4.83
7 | Cc1ccc(NC(=O)C2CCCCC2)cc1O | 3.29
8 | CCOC(=O)c1nnn(-c2nonc2N)c1-c1ccc(F)cc1 | -1.82
9 | CC(C)N1C(=O)/C(=C/Nc2ccc(Cl)cc2Cl)C(=O)N(Cc2ccco2)C1=O | 0.751
10 | COc1cccc(C(=O)C2=C(O)C(=O)N(CCc3ccccc3)C2c2ccc(O)cc2)c1 (stereo not shown) | -2.46
11 | CCOCCCN1C(=O)CN(C2CCCCCC2)C(=O)C1c1ccc(C)cc1 (stereo not shown) | -4.06
12 | Cc1ccc(NC(=O)CN2C(=O)N/C(=C/c3sccc3C)C2=O)cc1 | -3.09
13 | Cc1ccc2c(c1)C(C)CC(C)(C)N2C(=O)CSc1nc(C)cc(C)n1 (stereo not shown) | 0.475
14 | CCOCCCn1c(SCC(=O)c2ccccc2)nc2c(sc3ccccc32)c1=O | 4.17
15 | C=CCn1c(N2CCCCC2)nc2c1c(=O)n(C)c(=O)n2C | -1.07
16 | CC(=O)NCCc1c[nH]c2ccc(C)cc12 | 3.66
17 | Cc1c2cnn(CC(=O)NCCN3CCOCC3)c(=O)c2c(C)n1Cc1ccc(F)cc1 | 1.22
18 | Cc1ccnc(NC(=O)c2sc3ccccc3c2Cl)c1 | 5.23
19 | N#CCNC(=O)[C@H](Cc1cc(Cl)c(O)c(Cl)c1)NC(=O)c1ccccc1Cl | 4.63
20 | Cc1ccc(NC(=O)CSc2nc3c(c(=O)n(C)c(=O)n3C)n2C)cc1C | 2.38
21 | O=C(Nc1nc2c(cc3c4c(cccc42)CC3)s1)c1ccc(S(=O)(=O)N2CCCCC2)cc1 | -2.13
22 | COc1ccc(/C=C/c2[nH]c(=O)[nH]c(=O)c2[N+](=O)[O-])cc1Br | 0.162

Row | Structure (SMILES) | % Inhibition @ 10 uM [%]
23 | CCOc1cccc2cc(-c3nc(-c4ccncc4)no3)c(=O)oc12 | 0.292
24 | CC1CCCN(c2ccc3nonc3c2[N+](=O)[O-])C1 (stereo not shown) | 2.46
25 | COc1ccc(S(=O)(=O)N2CCN(c3cc(Cl)ccc3C)CC2)cc1OC | 1.27
26 | O=C(Cn1c(C(F)(F)F)nc2ccccc21)NCCCn1ccnc1 | -7.17
27 | CC(=O)O/N=C(\N)c1ncon1 | -9.24
28 | CC1CCCC(N(Cc2ccco2)C(=O)NCc2noc3ccccc23)C1C (stereo not shown) | 4.03
29 | CC1CC(C)CN(C(=O)C2CCCN(C(=O)c3cc4sccc4n3C)C2)C1 (stereo not shown) | -5.72
30 | CCn1ncc(C2=NOC(C(=O)N3CCC(C(N)=O)CC3)C2)c1C (stereo not shown) | -6.68
31 | CCCNC(=O)c1nnc(Cc2ccc3c(c2)OCO3)o1 | -3.49
32 | Cc1c(C(=O)NCc2ccco2)sc2ncn(CC(=O)N3CCC(C)CC3)c(=O)c12 | -0.458
33 | O=C(CNS(=O)(=O)c1ccc(Cl)cc1)NCC1CCCO1 (stereo not shown) | -4.86
34 | CC1CCCC(N2CC(C)OC(C)C2)C1 (stereo not shown) | 3.44
35 | CCc1nnc(NC(=O)CSc2ccc3nnc(-c4ccc(C)cc4)n3n2)s1 | -3.21
36 | Cc1cc(C)n(C(=O)c2ccc(COc3c(F)c(F)cc(F)c3F)o2)n1 | -1.33
37 | O=C(Cn1nc(-c2ccccc2)ccc1=O)NCc1cccs1 | 2.18
38 | CC1=C(C(=O)Nc2ccccc2)C(c2ccc(Br)cc2)n2ncnc2N1 (stereo not shown) | -3.39
39 | O=C(c1cc(=O)c2cc(Cl)ccc2o1)N(Cc1ccccc1)c1ccccn1 | 3.51
40 | C=CCn1c(SCC(=O)Nc2sc3c(c2C(N)=O)CCC3)nc2sc3c(c2c1=O)CCC3 | -2.68
41 | CC(=O)C1=C(C(F)(F)F)C(=O)OC1(C)N1CCOCC1 (stereo not shown) | -1.72
42 | COc1cc(OC)c(OC)cc1/C=C/C(=O)c1cc2cc(Cl)ccc2oc1=O | 6.84
43 | COc1ccc(C(=O)Nc2ccc(CN3CCOCC3)cc2)cc1Br | -2.85
44 | Cc1ccc2c(c1)-c1c(cnn1CC(=O)NCCOC13CC4CC(CC(C4)C1)C3)CO2 | -5.03

Row | Structure (SMILES) | % Inhibition @ 10 uM [%]
45 | CC1=C(C(=O)OCc2ccccc2)C(c2cccc(Cl)c2Cl)C2=C(O)CCCC2=N1 (stereo not shown) | -0.233
46 | COC(=O)C1=CN(Cc2ccc(OC)cc2)C=C(C(=O)OC)C1c1cccc(Cl)c1 | 7.93
47 | Cc1nc(CN2CCN(Cc3csc(C)n3)CC2)cs1 | -4.01
48 | CCOC(=O)C1CCN(Cc2ccc(F)c(F)c2)CC1 | 3.25
49 | O=[N+]([O-])c1cn(-c2cccc(O)c2)cn1 | 1.42
50 | CC(=O)Nc1cccc(NC(=O)c2ccc([N+](=O)[O-])cc2)c1 | -1.38
51 | COc1ccc(N(CC(=O)Nc2ccc(C)cc2C)S(C)(=O)=O)cc1OC | -0.185
52 | Cc1c(C)n(Cc2ccccc2)c2ccc(C(=O)OCCCN(C)C)cc12 | 6.48
53 | CCC(C)N1CCN(Cc2cc(OC)c(OC)c(OC)c2)CC1 (stereo not shown) | -14.4
54 | Cc1c(C)n(Cc2ccc(Cl)cc2)c2ccc(C(=O)NCC3CCCO3)cc12 (stereo not shown) | -7.04
55 | O=C1CC(c2ccccc2C(F)(F)F)c2ccc3ccccc3c2N1 (stereo not shown) | -2.35
56 | OCCNCc1cc(Cl)ccc1OCc1ccccc1Cl | -2.19
57 | OCCc1ccc(-c2ccc(Cl)cc2)o1 | -7.58
58 | Cc1ccc2cnn(CCCC(=O)NCCc3ccccc3)c2c1 | -1.11
59 | Nc1c(-c2nc3ccccc3[nH]2)nnn1-c1ccc(F)c(Cl)c1 | 0.776
60 | CCOC(=O)c1c(N)sc2c(N)cccc12 | -0.415
61 | NS(=O)(=O)c1ccc(CNC(=O)c2ccc(F)cc2)cc1 | -5.7
62 | Cc1nc2cc(-c3ccccc3)nn2c(C)c1CCC(=O)NCc1ccccc1Cl | 4.54
63 | CN(c1ccc(C(=O)Nc2ccc(Br)cc2)cc1)S(C)(=O)=O | 18.3
64 | COc1cccc(-n2cnc3sc(C)c(C)c3c2=O)c1 | -1.96
